Data from article PMC5700166.
Only a part is listed here, and it is no random draw. The list includes weakly bound sequences.

Tests used:
Assay in all cases: protein-binding microarray (PBM)
Details in all cases: PBM: ~300 nM protein, 6 mM HEPES pH 7.8, 80 mM KCl, 0.5 mM EDTA, 0.5 mM EGTA, 6% glycerol, 35 ng/ul poly-dIdC, 1% milk, 1 h, room temperature; Ap Aiptasia and Nv Nematostella (sea anemones) / Co Capsaspora / Aq Amphimedon (sponge) / Dm Drosophila / Hu human; RHD is the Rel homology domain; high values mean tight binding; most listed sequences are background and not binding sites; double strand, one strand shown
GST-Ap-NF-kB RHD = molecular target: T1, GST-Ap-NF-kB RHD (UniProt A0A913YAJ5)
T1 sequence: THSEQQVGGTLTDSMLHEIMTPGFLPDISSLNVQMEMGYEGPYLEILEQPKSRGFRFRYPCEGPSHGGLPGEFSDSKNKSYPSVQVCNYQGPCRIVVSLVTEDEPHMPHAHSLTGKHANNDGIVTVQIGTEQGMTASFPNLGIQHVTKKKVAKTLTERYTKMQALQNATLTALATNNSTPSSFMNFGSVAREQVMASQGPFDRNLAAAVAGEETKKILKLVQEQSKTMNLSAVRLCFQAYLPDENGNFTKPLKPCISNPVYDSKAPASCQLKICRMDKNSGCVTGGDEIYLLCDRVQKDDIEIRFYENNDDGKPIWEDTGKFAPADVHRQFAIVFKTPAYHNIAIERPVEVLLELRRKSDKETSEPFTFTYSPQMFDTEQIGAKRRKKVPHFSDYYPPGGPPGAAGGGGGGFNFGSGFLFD

[1] = molecular target: T2, GST-Nv-NF-kB (Cys allele) (UniProt E5G601)
T2 sequence: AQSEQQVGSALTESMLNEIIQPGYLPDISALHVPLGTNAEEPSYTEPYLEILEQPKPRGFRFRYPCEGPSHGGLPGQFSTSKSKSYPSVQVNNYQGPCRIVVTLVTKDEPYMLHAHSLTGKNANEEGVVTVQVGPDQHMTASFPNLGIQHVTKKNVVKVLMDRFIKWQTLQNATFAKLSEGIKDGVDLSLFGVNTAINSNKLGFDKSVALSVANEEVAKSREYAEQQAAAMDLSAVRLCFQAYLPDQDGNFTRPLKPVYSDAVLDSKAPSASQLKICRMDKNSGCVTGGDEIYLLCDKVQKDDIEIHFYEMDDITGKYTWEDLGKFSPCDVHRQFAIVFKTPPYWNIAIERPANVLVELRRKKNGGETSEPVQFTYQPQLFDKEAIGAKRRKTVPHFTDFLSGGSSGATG

GST-Co-NF-kB = molecular target: T3, GST-Co-NF-kB (UniProt F1ARL5)
T3 sequence: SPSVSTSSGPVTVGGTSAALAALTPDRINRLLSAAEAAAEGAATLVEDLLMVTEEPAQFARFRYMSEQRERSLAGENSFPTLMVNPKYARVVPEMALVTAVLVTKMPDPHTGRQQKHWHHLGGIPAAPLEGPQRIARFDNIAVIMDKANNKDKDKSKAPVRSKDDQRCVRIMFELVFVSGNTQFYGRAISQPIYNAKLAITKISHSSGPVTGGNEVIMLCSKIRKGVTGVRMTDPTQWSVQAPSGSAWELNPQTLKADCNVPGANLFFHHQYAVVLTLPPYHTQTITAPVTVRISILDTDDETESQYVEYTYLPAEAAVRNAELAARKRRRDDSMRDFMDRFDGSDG

GST-Aq-NF-kB = molecular target: T4, GST-Aq-NF-kB (UniProt A9Y5G7)
T4 sequence: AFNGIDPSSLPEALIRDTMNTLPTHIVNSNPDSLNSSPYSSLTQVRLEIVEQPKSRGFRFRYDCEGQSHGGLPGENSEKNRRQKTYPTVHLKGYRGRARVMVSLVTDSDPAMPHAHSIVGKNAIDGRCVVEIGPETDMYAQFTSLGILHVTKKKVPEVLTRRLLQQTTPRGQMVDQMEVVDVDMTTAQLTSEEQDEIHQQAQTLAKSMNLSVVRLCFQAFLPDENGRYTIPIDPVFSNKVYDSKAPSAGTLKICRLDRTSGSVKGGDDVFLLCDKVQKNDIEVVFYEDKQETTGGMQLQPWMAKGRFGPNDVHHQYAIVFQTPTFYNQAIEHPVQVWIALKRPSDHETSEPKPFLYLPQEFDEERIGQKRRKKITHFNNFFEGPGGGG

Sequence	binding signal (GST-Ap-NF-kB RHD) [z-score]	binding signal [1] [z-score]	binding signal (GST-Co-NF-kB) [z-score]	binding signal (GST-Aq-NF-kB) [z-score]
CCGATTAACATCAGGAAAGGCCATGATGTTAATCGGGTCTTGATTCGCTTGACGCTGCTG	-0.18	-0.23	-1.04	1.31
CCGATTAACATCAAAATTCCATATGATGTTAATCGGGTCTTGATTCGCTTGACGCTGCTG	-0.0851	-0.259	-0.664	0.415
CCGATTAACATCAGTAAAATCCATGATGTTAATCGGGTCTTGATTCGCTTGACGCTGCTG	-0.646	-0.266	0.494	0.471
CCGATTAACATCATGTGGTTCTCTGATGTTAATCGGGTCTTGATTCGCTTGACGCTGCTG	-0.288	-0.27	0.00892	-0.38
CCGATTAACATCAGGGACTGCCCTGATGTTAATCGGGTCTTGATTCGCTTGACGCTGCTG	4.31	4.95	1.04	7.19
CCGATTAACATCACGGAAACCACTGATGTTAATCGGGTCTTGATTCGCTTGACGCTGCTG	-0.433	-0.134	0.747	1.46
CCGATTAACATCAAATAATTTCCTGATGTTAATCGGGTCTTGATTCGCTTGACGCTGCTG	0.237	0.554	0.724	0.873
CCGATTAACATCACCTCTCGCGCTGATGTTAATCGGGTCTTGATTCGCTTGACGCTGCTG	0.241	-0.207	0.051	0.426
CCGATTAACATCAGGAAAAATACTGATGTTAATCGGGTCTTGATTCGCTTGACGCTGCTG	-0.224	0.583	0.908	0.388
CCGATTAACATCAGGAAACAACCTGATGTTAATCGGGTCTTGATTCGCTTGACGCTGCTG	-0.181	0.783	-0.239	2.89
CCGATTAACATCACGTAAACTCCTGATGTTAATCGGGTCTTGATTCGCTTGACGCTGCTG	0.0592	-0.711	0.182	0.17
CCGATTAACATCAGGAATGTACATGATGTTAATCGGGTCTTGATTCGCTTGACGCTGCTG	0.0622	-0.0553	-0.233	-0.0698
CCGATTAACATCACCGAATTTGGTGATGTTAATCGGGTCTTGATTCGCTTGACGCTGCTG	-0.291	0.447	-0.278	0.204
CCGATTAACATCAAAGGAAATTCTGATGTTAATCGGGTCTTGATTCGCTTGACGCTGCTG	-0.0472	0.605	0.387	0.916
CCGATTAACATCACGGGCAGTGGTGATGTTAATCGGGTCTTGATTCGCTTGACGCTGCTG	0.388	0.122	1.25	0.037
CCGATTAACATCAGGAAAAAACATGATGTTAATCGGGTCTTGATTCGCTTGACGCTGCTG	0.222	0.49	0.834	0.699
CCGATTAACATCAGTTTTTTCCATGATGTTAATCGGGTCTTGATTCGCTTGACGCTGCTG	-0.0799	0.894	0.422	0.593
CCGATTAACATCAAAATTCCAATTGATGTTAATCGGGTCTTGATTCGCTTGACGCTGCTG	-1.42	-0.674	-0.243	0.143
CCGATTAACATCAGGAAACTCCATGATGTTAATCGGGTCTTGATTCGCTTGACGCTGCTG	-0.174	-0.389	0.285	2.15
CCGATTAACATCAAGTACAACGGTGATGTTAATCGGGTCTTGATTCGCTTGACGCTGCTG	-0.0766	0.331	0.0234	0.447
CCGATTAACATCAGTGTGCTTCTTGATGTTAATCGGGTCTTGATTCGCTTGACGCTGCTG	-0.395	-0.0977	0.211	-0.396
CCGATTAACATCACGGAGTCCCCTGATGTTAATCGGGTCTTGATTCGCTTGACGCTGCTG	6.33	4.74	2.46	4.65
CCGATTAACATCAAGGGAGTCCCTGATGTTAATCGGGTCTTGATTCGCTTGACGCTGCTG	5.78	4.59	1.18	4.92
CCGATTAACATCAGGGAGTACCCTGATGTTAATCGGGTCTTGATTCGCTTGACGCTGCTG	5.7	4.14	1.84	6.66
CCGATTAACATCACAGAAAATCCTGATGTTAATCGGGTCTTGATTCGCTTGACGCTGCTG	0.187	-0.511	-0.185	0.473
CCGATTAACATCACGAAAATTCCTGATGTTAATCGGGTCTTGATTCGCTTGACGCTGCTG	0.0904	-0.24	-0.144	1.41
CCGATTAACATCACAAAATTCCATGATGTTAATCGGGTCTTGATTCGCTTGACGCTGCTG	-0.411	-0.694	-0.184	0.843
CCGATTAACATCACCATTATAGGTGATGTTAATCGGGTCTTGATTCGCTTGACGCTGCTG	-0.449	0.378	-0.378	0.294
